Measurements reported in patent US20070149465A1, “COMPOSITIONS AND METHODS FOR PREVENTION AND TREATMENT OF CACHEXIA” (priority 2005, published 2007).
The source gives many values for each of these; only a part stands here.

Experiment: Aqueous stability of roxithromycin (% Purity by HPLC)
Type: physicochemical
Conditions: 2 mg/mL
Protocol: Roxithromycin stability was determined for 2 mg/mL [roxithromycin] at 5, 25, and 40° C. as a function of pH and buffer (citrate) concentration. Roxithromycin %Purity was determined by area normalization using a reverse-phase HPLC method that meets the requirements of the EP Monograph. Solution pH values were determined per USP <791>.

- Roxithromycin % Purity By Area Normalization (5° C., citrate pH 4, 20 mM, 0 mo): 98%
- Roxithromycin % Purity By Area Normalization (5° C., citrate pH 4, 20 mM, 0.3 mo): 78%
- Roxithromycin % Purity By Area Normalization (5° C., citrate pH 4, 20 mM, 0.5 mo): 77%
- Roxithromycin % Purity By Area Normalization (5° C., citrate pH 4, 20 mM, 0.9 mo): 77%
- Roxithromycin % Purity By Area Normalization (5° C., citrate pH 4, 20 mM, 1.5 mo): 75%
- Roxithromycin % Purity By Area Normalization (5° C., citrate pH 4, 20 mM, 2.6 mo): 74%
- Roxithromycin % Purity By Area Normalization (5° C., citrate pH 4, 20 mM, 5.3 mo): 69%
- Roxithromycin % Purity By Area Normalization (5° C., citrate pH 4, 20 mM, 7.3 mo): 67%
- Roxithromycin % Purity By Area Normalization (5° C., citrate pH 4, 50 mM, 0 mo): 98%
- Roxithromycin % Purity By Area Normalization (5° C., citrate pH 4, 50 mM, 0.3 mo): 76%
- Roxithromycin % Purity By Area Normalization (5° C., citrate pH 4, 50 mM, 0.5 mo): 76%
- Roxithromycin % Purity By Area Normalization (5° C., citrate pH 4, 50 mM, 0.9 mo): 75%
- Roxithromycin % Purity By Area Normalization (5° C., citrate pH 4, 50 mM, 1.5 mo): 73%
- Roxithromycin % Purity By Area Normalization (5° C., citrate pH 4, 50 mM, 2.6 mo): 71%
- Roxithromycin % Purity By Area Normalization (5° C., citrate pH 4, 50 mM, 5.3 mo): 64%
- Roxithromycin % Purity By Area Normalization (5° C., citrate pH 4, 50 mM, 7.3 mo): 60%
- Roxithromycin % Purity By Area Normalization (5° C., citrate pH 5, 20 mM, 0 mo): 81%
- Roxithromycin % Purity By Area Normalization (5° C., citrate pH 5, 20 mM, 0.3 mo): 93%
- Roxithromycin % Purity By Area Normalization (5° C., citrate pH 5, 20 mM, 0.5 mo): 91%
- Roxithromycin % Purity By Area Normalization (5° C., citrate pH 5, 20 mM, 0.9 mo): 89%
- Roxithromycin % Purity By Area Normalization (5° C., citrate pH 5, 20 mM, 1.5 mo): 85%
- Roxithromycin % Purity By Area Normalization (5° C., citrate pH 5, 20 mM, 2.6 mo): 82%
- Roxithromycin % Purity By Area Normalization (5° C., citrate pH 5, 20 mM, 5.3 mo): 80%
- Roxithromycin % Purity By Area Normalization (5° C., citrate pH 5, 20 mM, 7.3 mo): 79%
- Roxithromycin % Purity By Area Normalization (5° C., citrate pH 5, 50 mM, 0 mo): 78%
- Roxithromycin % Purity By Area Normalization (5° C., citrate pH 5, 50 mM, 0.3 mo): 88%
- Roxithromycin % Purity By Area Normalization (5° C., citrate pH 5, 50 mM, 0.5 mo): 85%
- Roxithromycin % Purity By Area Normalization (5° C., citrate pH 5, 50 mM, 0.9 mo): 84%
- Roxithromycin % Purity By Area Normalization (5° C., citrate pH 5, 50 mM, 1.5 mo): 81%
- Roxithromycin % Purity By Area Normalization (5° C., citrate pH 5, 50 mM, 2.6 mo): 79%
- Roxithromycin % Purity By Area Normalization (5° C., citrate pH 5, 50 mM, 5.3 mo): 78%
- Roxithromycin % Purity By Area Normalization (5° C., citrate pH 5, 50 mM, 7.3 mo): 77%
- Roxithromycin % Purity By Area Normalization (5° C., citrate pH 5, 100 mM, 0 mo): 90%
- Roxithromycin % Purity By Area Normalization (5° C., citrate pH 5, 100 mM, 0.3 mo): 85%
- Roxithromycin % Purity By Area Normalization (5° C., citrate pH 5, 100 mM, 0.5 mo): 83%
- Roxithromycin % Purity By Area Normalization (5° C., citrate pH 5, 100 mM, 0.9 mo): 81%
- Roxithromycin % Purity By Area Normalization (5° C., citrate pH 5, 100 mM, 1.5 mo): 79%
- Roxithromycin % Purity By Area Normalization (5° C., citrate pH 5, 100 mM, 2.6 mo): 78%
- Roxithromycin % Purity By Area Normalization (5° C., citrate pH 5, 100 mM, 5.3 mo): 76%
- Roxithromycin % Purity By Area Normalization (5° C., citrate pH 5, 100 mM, 7.3 mo): 76%
- Roxithromycin % Purity By Area Normalization (5° C., citrate pH 6, 20 mM, 0 mo): 96%
- Roxithromycin % Purity By Area Normalization (5° C., citrate pH 6, 20 mM, 0.3 mo): 98%
- Roxithromycin % Purity By Area Normalization (5° C., citrate pH 6, 20 mM, 0.5 mo): 97%
- Roxithromycin % Purity By Area Normalization (5° C., citrate pH 6, 20 mM, 0.9 mo): 97%
- Roxithromycin % Purity By Area Normalization (5° C., citrate pH 6, 20 mM, 1.5 mo): 97%
- Roxithromycin % Purity By Area Normalization (5° C., citrate pH 6, 20 mM, 2.6 mo): 96%
- Roxithromycin % Purity By Area Normalization (5° C., citrate pH 6, 20 mM, 5.3 mo): 96%
- Roxithromycin % Purity By Area Normalization (5° C., citrate pH 6, 20 mM, 7.3 mo): 94%
- Roxithromycin % Purity By Area Normalization (5° C., citrate pH 6, 50 mM, 0 mo): 92%
- Roxithromycin % Purity By Area Normalization (5° C., citrate pH 6, 50 mM, 0.3 mo): 97%
- Roxithromycin % Purity By Area Normalization (5° C., citrate pH 6, 50 mM, 0.5 mo): 96%
- Roxithromycin % Purity By Area Normalization (5° C., citrate pH 6, 50 mM, 0.9 mo): 96%
- Roxithromycin % Purity By Area Normalization (5° C., citrate pH 6, 50 mM, 1.5 mo): 95%
- Roxithromycin % Purity By Area Normalization (5° C., citrate pH 6, 50 mM, 2.6 mo): 93%
- Roxithromycin % Purity By Area Normalization (5° C., citrate pH 6, 50 mM, 5.3 mo): 90%
- Roxithromycin % Purity By Area Normalization (5° C., citrate pH 6, 50 mM, 7.3 mo): 87%
- Roxithromycin % Purity By Area Normalization (5° C., citrate pH 6, 100 mM, 0 mo): 90%
- Roxithromycin % Purity By Area Normalization (5° C., citrate pH 6, 100 mM, 0.3 mo): 96%
- Roxithromycin % Purity By Area Normalization (5° C., citrate pH 6, 100 mM, 0.5 mo): 95%
- Roxithromycin % Purity By Area Normalization (5° C., citrate pH 6, 100 mM, 0.9 mo): 95%
- Roxithromycin % Purity By Area Normalization (5° C., citrate pH 6, 100 mM, 1.5 mo): 93%
- Roxithromycin % Purity By Area Normalization (5° C., citrate pH 6, 100 mM, 2.6 mo): 90%
- Roxithromycin % Purity By Area Normalization (5° C., citrate pH 6, 100 mM, 5.3 mo): 86%
- Roxithromycin % Purity By Area Normalization (5° C., citrate pH 6, 100 mM, 7.3 mo): 84%
- Roxithromycin % Purity By Area Normalization (25° C., citrate pH 5, 100 mM, 0.9 mo): 75%
- Roxithromycin % Purity By Area Normalization (25° C., citrate pH 5, 100 mM, 1.5 mo): 73%
- Roxithromycin % Purity By Area Normalization (25° C., citrate pH 5, 100 mM, 2.6 mo): 67%
- Roxithromycin % Purity By Area Normalization (25° C., citrate pH 5, 100 mM, 5.3 mo): 60%
- Roxithromycin % Purity By Area Normalization (25° C., citrate pH 5, 100 mM, 7.3 mo): 50%
- Roxithromycin % Purity By Area Normalization (25° C., citrate pH 6, 100 mM, 0 mo): 98%
- Roxithromycin % Purity By Area Normalization (25° C., citrate pH 6, 100 mM, 0.3 mo): 94%
- Roxithromycin % Purity By Area Normalization (25° C., citrate pH 6, 100 mM, 0.5 mo): 92%
- Roxithromycin % Purity By Area Normalization (25° C., citrate pH 6, 100 mM, 0.9 mo): 89%
- Roxithromycin % Purity By Area Normalization (25° C., citrate pH 6, 100 mM, 1.5 mo): 85%
- Roxithromycin % Purity By Area Normalization (25° C., citrate pH 6, 100 mM, 2.6 mo): 81%
- Roxithromycin % Purity By Area Normalization (25° C., citrate pH 6, 100 mM, 5.3 mo): 78%
- Roxithromycin % Purity By Area Normalization (25° C., citrate pH 6, 100 mM, 7.3 mo): 76%
SMILES: CC[C@H]1OC(=O)[C@H](C)[C@@H](O[C@H]2C[C@@](C)(OC)[C@@H](O)[C@H](C)O2)[C@H](C)[C@@H](O[C@@H]2O[C@H](C)C[C@H](N(C)C)[C@H]2O)[C@](C)(O)C[C@@H](C)/C(=N\OCOCCOC)[C@H](C)[C@@H](O)[C@]1(C)O [roxithromycin]
